Source: the supplement of paper PMC11417369
This is one part of the list.

Test system: PfHDP1 homeodomain (GST-tagged)
Experiment: gcPBM binding intensity (ln(normalized median fluorescence intensity)); higher = stronger DNA binding
Summary of the method: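 Probes on an Agilent 4 × 180k array were primer-extended, double-stranded and 36 bp long, taken from intergenic genomic regions, with negative controls added. GST-tagged P. falciparum DNA-binding domains from E. coli, about 25 μg on average, were applied to the array for 1 h in 1× PBS containing 1% milk, 0.2 mg/ml BSA, 0.5% salmon testes DNA and 0.03% Triton X-100. Binding intensity, obtained after Alexa488 anti-GST antibody detection and a 488 nm scan, is the highest Masliner-normalised natural-log median intensity across replicate spots of either probe orientation.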

| Sequence | gcPBM binding intensity (ln) |
| --- | --- |
| AATAATAAAAAAAGTGCACACACATAATATATATAT [CACACA_site9100] | 8.79 |
| ATGTATATATATATATGTACATATTTTTTATATGTA [XGTACX_site441] | 6.23 |
| TTTAAAATAAATTAATAGAACAAAAATAAAATGATT [GTGCAC_negctrl_site375] | 6.55 |
| TTCTTTTTTTAAAGAAGTACTATATTTTAAATTATA [XGTACX_site5059] | 5.8 |
| AAAAAAAATACAAAAAGTACAAAAAATACAAAAAAA [XGTACX_site8844] | 6.19 |
| AATTTTATTACTTTTACACACCTATATATCATTCAT [CACACA_site7525] | 6.91 |
| ACCTTAAATAATACATGTACAAAAAAATTTATAATA [XGTACX_site1043] | 7.66 |
| TAGGGATTATACCACACACACATACACATAAATATA [CACACA_site3178] | 6.9 |
| AAGAATAAGGAAAAATGTACAGAATGCACATATGAA [XGTACX_site4705] | 9.28 |
| TAGTTTTGAAAACAAACACACAAAAAAAAAAAAAAA [CACACA_site1692] | 6.13 |
| TACATATTACTATTCAGTACATATTTTTTTTTCATT [XGTACX_site7468] | 6.31 |
| AGGATAAAAGTTATGGTGCATTAACCTATTTAAATA | 10.1 |
| TATATAGGTATATATACACACAACGGTTATAAATAT [CACACA_site4759] | 6.68 |
| TATAAAGACACGAAAACACACATATGTAAATATATA [CACACA_site8056] | 7.13 |
| TTTGAGTTACTATTCACACAAAATGGATAAATTAAT [CACACA_site5626] | 6.38 |
| CACATAAATAATTAAACACACATTGTTCTAGACAAT [CACACA_site2378] | 6.51 |
| ATGTAAGTAATTATCTGTACACATAATATATATATA [XGTACX_site2618] | 8.56 |
| AATATAAAAAATAATACACACACATGGCGACAAAAT [CACACA_site8765] | 7.31 |
| TATTAATCCTTTTGCTTGGAAACATTCAAAAGGAAG [CACACA_negctrl_site1129] | 5.99 |
| AAAATAAACCCAGACACACTCATTAAAAAATATCAT [CACACA_site5903] | 6.49 |
| ATAAATAAATACTAGGCACACACACCGATATATATA [CACACA_site8649] | 7.07 |
| ATATATATAAAATATGGTACAGAAAAAGTCTTGTTT [XGTACX_site8868] | 7.07 |
| TTCTGTCAATATGCTTGTACGAAATATTTCGTAATT [XGTACX_site3182] | 6.7 |

| Sequence | gcPBM binding intensity (ln) |
| --- | --- |
| AAACCGTGGGAGCACACACACACACCCACCCATATA [CACACA_site332] | 6.6 |
| ATAATAACAAAATATTAACACACATAACATATTATA [CACACA_site8906] | 6.41 |
| ACAAAACAAAACAAAAGTACACAAAATAAATAAGAT [XGTACX_site6497] | 7.06 |
| AATCCTTAAAATTAACGTACGAAATGAATTTATTAA [XGTACX_site956] | 6.23 |
| TGGAGGTCATTACACAGTACCCAGGAAATCTACGGA [XGTACX_site2004] | 6.21 |
| AAAGATATAAATTACTGTACTAATGAAATTGGTAAA [XGTACX_site3582] | 6.14 |
| TTAAATAATGCCACCAGTACCCACTGAAAGAAAAAA [XGTACX_site5013] | 6.25 |
| CAATTGATATTGAAATGTACTTTTTAGATGAACCTT [XGTACX_site2354] | 6.17 |
| TATATTAAAATTTACTGTACTTTTTTTATTTTAAAA [XGTACX_site4077] | 6.17 |
| ATGTATATATTCAATTGTACATGTTATATTTACACA [XGTACX_site1125] | 6.5 |
| ATTGTATTAAAATGCACACATATCAAGAGGAATTTT [CACACA_site283] | 9.8 |
| AAAGAATAATTAAATACACACATATTGCAGTAAAAA [CACACA_site7201] | 6.89 |
| ATATTAAAATTTTAATGTACATGCGTATGTAGGAAT [XGTACX_site1673] | 7.44 |
| TATATTATATTTTTATGTACTTATTTATTTTGTTTC [XGTACX_site6145] | 6.44 |
| AACATATATTTTTAATGTACAAGGTTGTAAAGAACT [XGTACX_site1405] | 6.68 |
| ATAAAGCACACCGACACACACATATATATATATATA [CACACA_site1047] | 9.37 |
| CAAAAAAAAAAACGGGTGCTAAATTTTATTTTTTAT | 6.73 |
| AAAAAAAAAATATATATATATATATATATATATATA [GTGCAC_negctrl_site467] | 9.4 |
| TATCATGGTTCGGATTGTACATATATGAATTTTTTT [XGTACX_site7478] | 6.46 |
| TTCTTTTAAAAATATATTTTAAGAAAATTTAATTTA [GTGCAC_negctrl_site237] | 6.09 |
| GGATAAGAAAAGAAGTGTACATATATATATATATAT [XGTACX_site8290] | 9.37 |
| TTTATTTTTTGAAACACACACAAAAAAAATGATACA [CACACA_site1881] | 6.81 |
